The source holds more than one record for some entries. The list is limited to them. The source may hold further records. Values given together are repeated measurements in other runs, samples, wells, individuals or studies. Brackets with × say how often a value occurs here.

For the assay, the system named is NCI-H196 complex spheroid growth, percent test/control. Kind of assay: Anticancer human tumor NCI-H196 cell line growth inhibition [AhR].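 Note: seven days of drug exposure starting three days after plating.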 The settings on record: stronger effect = lower value. The source says:
Multicellular complex tumor spheroid response to aryl hydrocarbon receptor antagonists in combination with a variety of drugs and investigational agents in selected tumor cell lines
The current study was undertaken to assess response to aryl hydrocarbon receptor antagonists in combination with standard-of-care drugs and investigational agents in solid tumor complex spheroid models. Complex spheroids include a stromal component modeled by human endothelial cells (HUVEC) and fibroblasts modeled by human mesenchymal stem cells (MSCs). The concentration ranges selected for each drug and investigational agent were based upon clinically achievable concentrations if the clinical Cmax of the agent was known.
Compounds. The drugs and investigational agents: BAY 2416964 (NSC825713), GNF351 (NSC835774), CH-223191 (NSC835775), CPI-455 (NSC825282), aza-TdCyd (NSC777586), decitabine (NSC127716), belinostat (NSC758774), entinostat (NSC756642), pevonedistat (NSC761192), tazemetostat (NSC777109), talazoparib (NSC765396), olaparib (NSC753686), selinexor (NSC780203), nedisertib (M3814, NSC802822), bortezomib (NSC756655), venetoclax (NSC766270), doxorubicin (NSC123127), elimusertib (BAY189344, NSC800525), ceralasertib (AZD6738, NSC777638), TAK-243 (NSC785004), alisertib (NSC759677), etoposide (NSC141540), topotecan (NSC609699), eribulin (NSC707389), gemcitabine (NSC613327), carboplatin (NSC241240), cisplatin (NSC119875), and SN-38 (NSC673596) were obtained from the National Cancer Institute (NCI) Developmental Therapeutics Program Chemical Repository (32). The FDA-approved anticancer drug set is available from the Developmental Therapeutics Program at https://dtp.cancer.gov/organization/dscb/obtaining/available plates.htm. […] The stock solutions were prepared in dimethyl sulfoxide (DMSO, Sigma-Aldrich, St. Louis, MO, cat. D2650), except for the platinum compounds which were prepared in saline (Quality Biological, Gaithersburg, MD, cat. 114-055-101), at 800-fold the tested concentration and stored at -70 degrees C prior to their use. All drugs and investigational agents were tested over a range starting from a high concentration at or near the clinical Cmax and decreasing in half-log increments. If the clinical Cmax for an agent had not been determined, the highest concentration tested was 10 microM (Table 1).
Cell Culture. All cells were maintained in an incubator at 37 degrees C and 5% CO2 with 95% humidity. The PDC lines were cultured according to standard operating procedures established by the NCI PDMR (https://pdmr.cancer.gov). Briefly, all PDCs were thawed and cultured in Matrigel-coated flasks prepared with a working solution of 1X Ham's F-12 nutrient mix, without supplementation (Invitrogen, Waltham, MA, cat. 11765054), 100 U/mL penicillin-streptomycin (Invitrogen, cat. 15140122), and 2.5% Matrigel (Corning Inc., Corning, NY, cat. 354248) for the first three passages. All PDCs were cultured in complete DMEM/F-12 media containing advanced DMEM/F-12 (Invitrogen, cat. 12634028), 4.9% defined fetal bovine serum, heat inactivated (HyClone Laboratories Inc., Logan, UT, cat. SH30070.03HI), 389 ng/mL hydrocortisone (Sigma-Aldrich, cat. H4001), 9.7 ng/mL human EGF recombinant protein (Invitrogen, cat. PHG0313), 23.4 microg/mL adenine (Sigma-Aldrich, cat. A2786), 97.3 U/mL penicillin-streptomycin (Invitrogen, cat. 15140122), 1.9 mM L-glutamine (Invitrogen, cat. 25030081), and 9.7 microM Y-27632 dihydrochloride (Tocris Bioscience, Bristol, United Kingdom, cat. 1254). […]

In the case of `CC(CO)NC(=O)c1cc(-c2ccc(Cl)cc2)nn(-c2cnn(C)c2)c1=O` (stereo not given), the viability, T/C runs as follows: (compound alone 0.1 µM) 104 (2×), 101 (3×), 100, 98.8, 103, 102, 93.7, 99.8, 99.4, 98.4, 105 (2×), 98, 99.2, 119, 106, 108%; (compound alone 0.316 µM) 91.2, 94.9, 105 (2×), 107, 112, 97.3, 104 (2×), 102, 111, 97.2, 119, 106, 96.5, 109, 94.4, 103, 108, 110% (2×); (compound alone 10 µM) 103 (2×), 94.3, 99.7, 104 (4×), 112 (2×), 105, 113, 106, 110, 115, 109, 114 (2×), 123%.

On to `Cc1cncc(-c2nc(NCCc3c[nH]c4ccccc34)c3ncn(C(C)C)c3n2)c1`, for which the viability, T/C (compound alone 10 µM) was 94.1, 98.9, 93.9, 77.2, 84.7, 80.3, 75.1, 76.3, 78.2, 79, 104, 86.5, 99.4, 87.6 (2×), 91.3, 87.1, 80.4, 97, 86.6%.

For the molecule `Cc1ccccc1N=Nc1ccc(NC(=O)c2ccnn2C)c(C)c1`, for the setting “compound alone 1 µM”, the viability, T/C was 99.4, 101 (2×), 83.9, 89.8, 88.8, 95.1, 96.9, 94.2, 96.4, 98.2, 97.2, 87.9, 95.8, 92.8, 95.2, 109, 94.5, 88.5, 94%.

The values above are taken from PubChem BioAssay AID1919016 (Molecular Pharmacology Branch, DTP, NCI, 2023).
